Reference: PubChem BioAssay AID1030 (National Center for Advancing Translational Sciences (NCATS), 2008)
In all, about 220,000 compounds went through this assay and about 16,000 (7.3%) were called active. This list was built around the results that the source calls inconclusive (neither active nor inactive); the mix of calls is not that of the screen. Calls come from the whole dose curve; as a rule, active = well fitted inhibition curve with a large enough effect (not every such curve was filed as active); inconclusive = small, poorly fitted or top-dose-only effect, or another doubt; inactive = no such curve, though single readings can be large or run the other way. Where the call is inconclusive, the potency comes from a doubtful curve fit.

molecular target: Aldehyde dehydrogenase 1A1 (Homo sapiens) (UniProt P00352); assay: qHTS Assay for Inhibitors of Aldehyde Dehydrogenase 1 (ALDH1A1); details: Purified ALDH1A1, NADH fluorescence, propionaldehyde substrate; series mostly up to 75.3 µM;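 for activity, negative = inhibition: plate controls were no enzyme wells and a reference inhibitor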
UniProt P00352, sequence (P00352 whole entry, looked up): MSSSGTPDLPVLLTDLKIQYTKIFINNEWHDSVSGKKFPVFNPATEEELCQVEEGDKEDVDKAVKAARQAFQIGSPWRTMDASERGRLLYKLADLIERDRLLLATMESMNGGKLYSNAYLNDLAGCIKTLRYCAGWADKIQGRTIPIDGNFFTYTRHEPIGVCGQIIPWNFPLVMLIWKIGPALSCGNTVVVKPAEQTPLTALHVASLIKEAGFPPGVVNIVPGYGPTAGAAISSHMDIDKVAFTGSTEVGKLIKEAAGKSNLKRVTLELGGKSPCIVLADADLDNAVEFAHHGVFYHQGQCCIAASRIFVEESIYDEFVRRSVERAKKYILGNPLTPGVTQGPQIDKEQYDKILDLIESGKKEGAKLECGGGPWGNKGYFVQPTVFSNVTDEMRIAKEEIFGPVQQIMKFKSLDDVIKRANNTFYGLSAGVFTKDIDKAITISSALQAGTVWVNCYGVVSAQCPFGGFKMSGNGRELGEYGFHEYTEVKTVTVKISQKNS
Potency is the fitted concentration of half-maximal effect; tags give direction and shape of the fitted curve.

Potency, inconclusive:
Cc1nc2sc(C(c3cccs3)N3CC(C)CC(C)C3)c(O)n2n1 (stereo unspecified) 14.1 µM [inhibitor, partial curve], O=c1[nH]c2cc3c(cc2cc1CN(Cc1nnnn1CC1CCCO1)C1CCCC1)OCO3 (stereo unspecified) 28.2 µM [inhibitor, partial curve], CC(=O)Oc1cc(C(F)(F)F)ccc1C(=O)O 15.8 µM [inhibitor, single point], Cc1nnsc1-c1nnc(SCC(=O)c2ccc(C#N)cc2)n1C1CC1 44.7 µM [inhibitor, single point], C=CCOC(=O)C1=C(C)N=C2SCCC(=O)N2C1/C=C/c1ccccc1 (stereo unspecified) 39.8 µM [inhibitor, single point], CCOC(=O)CN(C(=O)CSc1nnc2c(n1)[nH]c1ccc(OC)cc12)c1ccc(F)cc1 39.8 µM [inhibitor, single point], C(=N\Nc1nnnn1-c1ccccc1)/c1ccncc1 8.91 µM [inhibitor, full curve], O=C(CSc1ccc(Cl)cc1)Nc1ccc(-c2nc3ccccc3[nH]2)cc1 39.8 µM [inhibitor, single point], CSc1cccc(NC(=O)/C=C/c2cccc(Cl)c2)c1 39.8 µM [inhibitor, single point], Cc1ccc(-c2csc3ncnc(NS(=O)(=O)c4ccc(Cl)cc4)c23)cc1 2 µM [inhibitor, full curve], O=C(CSc1ccc2nnc(-c3cccs3)n2n1)N1CCCC1 39.8 µM [inhibitor, single point], CCOC(=O)C1(CCc2ccccc2)CCN(C(=O)C2=C(C)OCCO2)CC1 25.1 µM [inhibitor, partial curve], O=C(NCc1ccccc1)C(=O)NCC(c1ccco1)N1CCN(c2ccccc2F)CC1 (stereo unspecified) 22.4 µM [inhibitor, partial curve], CCc1cc2c3c(c(=O)oc2cc1O)CCCC3 3.16 µM [inhibitor, full curve], Cc1ccc(Cn2c(SCC(=O)N3CC(=O)Nc4ccccc43)nc3ccccc3c2=O)cc1 14.1 µM [inhibitor, partial curve], O=C(C1=C[C@H](c2ccc3c(c2)OCO3)C[C@H](OCCCCO)O1)N1CCOCC1 31.6 µM [inhibitor, partial curve], Cc1ccc(C(=O)Nn2c(N)c(S(=O)(=O)c3ccc(C)cc3)c3nc4ccccc4nc32)cc1 28.2 µM [inhibitor, partial curve], COC(=O)CCN1CCN(S(=O)(=O)c2ccccc2Br)CC1 31.6 µM [inhibitor, single point], Nn1cnnc1N/N=C/c1cc([N+](=O)[O-])c(Cl)cc1Cl 12.6 µM [inhibitor, partial curve], Cc1cc(=O)oc2cc(NC(=S)NCc3ccccn3)ccc12 28.2 µM [inhibitor, partial curve], CC1CCCN(C(=O)C2CCN(CC(C)c3ccccc3)CC2)C1 (stereo unspecified) 39.8 µM [inhibitor, single point], CC1(C)CC(=O)C/C(=N\NC(=S)NCc2ccccc2)C1 28.2 µM [inhibitor, partial curve], O=C(c1ccco1)N1CCC2(CCCN(C(c3ccccc3)c3ccccc3)C2)CC1 39.8 µM [inhibitor, single point], O=C1c2cccc(OCC(=O)N3N=C(c4cccs4)CC3c3ccc(F)cc3)c2CCN1Cc1ccccc1 (stereo unspecified) 20 µM [inhibitor, partial curve], CCc1nnc(NC(=O)CSc2nnc(Cc3cccn3C)n2CCOC)s1 39.8 µM [inhibitor, single point], O=C(CCCC(=O)OCC(=O)c1cccs1)Nc1ccc(Oc2ccccc2)cc1 14.1 µM [inhibitor, partial curve], COc1ccc(-n2c(=O)c(C)nc3cnc(OC)nc32)cc1 25.1 µM [inhibitor, single point], CCOC(=O)C1(CC2CC2)CCN(Cc2cn[nH]c2-c2ccccc2)CC1 39.8 µM [inhibitor, single point], COC(=O)c1cc2c(s1)-c1ccccc1OC2 31.6 µM [inhibitor, partial curve], COc1ccc(CCNC(=O)CN2CCCc3ccccc32)cc1OC 39.8 µM [inhibitor, single point], CCOc1ccc(N2C(=O)CC(N(CCc3ccccc3)C(=O)/C=C/C(=O)O)C2=O)cc1 (stereo unspecified) 39.8 µM [inhibitor, single point], Cc1nc(-c2coc3cc(OCC(=O)O)ccc3c2=O)cs1 39.8 µM [inhibitor, single point], Nc1[nH]nc2nc(NCc3ccccc3)c3c(c12)CCN(Cc1ccccc1)C3 28.2 µM [inhibitor, single point], O=C(c1ccoc1)N1CCC(CO)(CCc2ccccc2)CC1 39.8 µM [inhibitor, single point], CCC(=O)NC(=S)Nc1cccc(Cl)c1N1CCCCC1 39.8 µM [inhibitor, single point], CC(=O)OC1=Cc2c(ccc3ccc(=O)oc23)OC1(C)C 35.5 µM [inhibitor, single point], O=C1C2CC=CCC2C(=O)N1Cc1ccccc1 (stereo unspecified) 39.8 µM [inhibitor, single point], O=C(O)CNC(=S)N(Cc1ccco1)Cc1ccccc1Cl 39.8 µM [inhibitor, single point], Oc1ccc(Cl)cc1C1=NNC(c2cc(Br)cc3c2OCOC3)C1 (stereo unspecified) 22.4 µM [inhibitor, partial curve]

Potency, inactive:
CC(=O)Nc1cccc(C(=O)OCc2ccc(C(=O)Oc3ccc(Cl)cc3)cc2)c1, CCOC(=O)c1c(C)nn(-c2ncccc2NC(=O)NC(C)C)c1C, Cc1cccc(CSc2nnc(C)c(=O)n2N)c1, Clc1ccc(OCCOCCN2CCCCC2)c(Br)c1, Cc1cccc(CCNS(=O)(=O)c2ccc(S(=O)(=O)N3CCCCC3)cc2)c1, CCOc1ccc2nc(NC(=O)c3ccc(S(=O)(=O)N4CCOCC4)cc3)sc2c1, O=C1CNC(=O)/C(=C/c2cccs2)N1, Cn1c(=O)c2c(ncn2CCN(CCO)Cc2ccccc2)n(C)c1=O, CCOC(=O)NNC(=S)Nc1c(C)n(C)n(-c2ccccc2)c1=O, CCOC(=O)c1[nH]c(=O)[nH]c1CN(Cc1ccco1)Cc1[nH]c(=O)[nH]c1C(=O)OCC, C=C1c2ccccc2NC(=O)N1c1ccc(OC)cc1, Cn1c(SCC(=O)c2ccc3c(c2)Cc2ccccc2-3)nnc1-c1cccc(N)c1, CCN(c1ccc(OC)cc1)c1ncnc2nc[nH]c12, CC(C)c1ccc(CNC(=O)C(=O)NCC2CCCO2)cc1 (stereo unspecified), O=C(NN1C(=O)C2C3CCC(O3)C2C1=O)c1ccco1 (stereo unspecified), Nc1ccc(S(=O)(=O)Nc2nccc(/C=C/c3ccc(Br)s3)n2)cc1, O=[N+]([O-])c1ccc(Nc2c3ccccc3nc3ccccc23)cc1, COCCCNC(=S)NCCc1ccc(F)cc1, COc1ccccc1NC(=O)Cn1cnc2c(cnn2-c2ccc(C)c(C)c2)c1=O, O=C1CC[C@H](C(=O)O)N1, O=C(NC(Cc1c[nH]c2ccccc12)C(=O)OCC(=O)c1cccc2ccccc12)c1cccs1 (stereo unspecified), CCCCC(=O)NC1=NC(=O)C(C)(C)S1, Cc1ccc(S(=O)(=O)N2CCC(=O)N(CCOCc3ccc(C(F)(F)F)cc3)CC2)cc1, CCC(C)[C@@H](NC(=O)OC(C)(C)C)c1nnc(S(=O)(=O)Cc2cccc(C)c2)o1 (stereo partly specified), O=C(COC(=O)/C=C/c1ccc(OC(F)F)cc1)Nc1ccc(S(=O)(=O)N2CCCC2)cc1, N[C@H](C(=O)O)C1[C@H](C(=O)O)[C@H]1C(=O)O (stereo partly specified), CC(C)C(=O)Nc1ccc(C(=O)N2CCCCCC2)cc1, O=C(O)c1cc(=O)c2cccc(O)c2[nH]1

Potency, active:
N#CCCn1cc(/C=C2\NC(=S)N(c3ccccc3)C2=O)c(-c2ccc(F)cc2)n1 25.1 µM, O=C(C(Cl)Cl)N1CCN(Cc2ccccc2)CC1 1.78 µM, CCOC(=O)C1=C(NC#N)OC(C)=C(C)C1c1ccc(O)cc1 (stereo unspecified) 22.4 µM, Cc1ccc(OCc2n[nH]c(=S)n2C2CCCCC2)cc1 14.1 µM, CCOc1ccccc1Nc1nc(-c2sc(NC(=O)c3ccc([N+](=O)[O-])cc3)nc2C)cs1 0.794 µM, CCOc1ccc(N2C(=O)CN(O)C=C3N=c4ccccc4=C32)cc1 10 µM, O=[N+]([O-])c1cccc(C(=S)N2CCN(c3ccccc3F)CC2)c1 22.4 µM, N#CC1=C2SCN(Cc3ccco3)CN2C(=O)CC1c1ccccc1F (stereo unspecified) 10 µM

activity, negative = inhibition, inactive:
CC#CCN1c2ccccc2[C@]23C[C@@H](C(=O)OC)N(S(=O)(=O)c4c(C)noc4C)C2=NC(C(=O)OC)=C(C(=O)OC)[C@H]13 7.62% [at 13.5 µM]
